{"source": "patent US9101632B2", "about": "“Kinase inhibitors, prodrug forms thereof and their use in therapy” (AUCKLAND UNISERVICES LIMITED, priority 2009, dated 2015)", "molecular_target": "erbB1 (EGFR) (Homo sapiens, UniProt P00533)", "sequence (P00533 25-1210)": "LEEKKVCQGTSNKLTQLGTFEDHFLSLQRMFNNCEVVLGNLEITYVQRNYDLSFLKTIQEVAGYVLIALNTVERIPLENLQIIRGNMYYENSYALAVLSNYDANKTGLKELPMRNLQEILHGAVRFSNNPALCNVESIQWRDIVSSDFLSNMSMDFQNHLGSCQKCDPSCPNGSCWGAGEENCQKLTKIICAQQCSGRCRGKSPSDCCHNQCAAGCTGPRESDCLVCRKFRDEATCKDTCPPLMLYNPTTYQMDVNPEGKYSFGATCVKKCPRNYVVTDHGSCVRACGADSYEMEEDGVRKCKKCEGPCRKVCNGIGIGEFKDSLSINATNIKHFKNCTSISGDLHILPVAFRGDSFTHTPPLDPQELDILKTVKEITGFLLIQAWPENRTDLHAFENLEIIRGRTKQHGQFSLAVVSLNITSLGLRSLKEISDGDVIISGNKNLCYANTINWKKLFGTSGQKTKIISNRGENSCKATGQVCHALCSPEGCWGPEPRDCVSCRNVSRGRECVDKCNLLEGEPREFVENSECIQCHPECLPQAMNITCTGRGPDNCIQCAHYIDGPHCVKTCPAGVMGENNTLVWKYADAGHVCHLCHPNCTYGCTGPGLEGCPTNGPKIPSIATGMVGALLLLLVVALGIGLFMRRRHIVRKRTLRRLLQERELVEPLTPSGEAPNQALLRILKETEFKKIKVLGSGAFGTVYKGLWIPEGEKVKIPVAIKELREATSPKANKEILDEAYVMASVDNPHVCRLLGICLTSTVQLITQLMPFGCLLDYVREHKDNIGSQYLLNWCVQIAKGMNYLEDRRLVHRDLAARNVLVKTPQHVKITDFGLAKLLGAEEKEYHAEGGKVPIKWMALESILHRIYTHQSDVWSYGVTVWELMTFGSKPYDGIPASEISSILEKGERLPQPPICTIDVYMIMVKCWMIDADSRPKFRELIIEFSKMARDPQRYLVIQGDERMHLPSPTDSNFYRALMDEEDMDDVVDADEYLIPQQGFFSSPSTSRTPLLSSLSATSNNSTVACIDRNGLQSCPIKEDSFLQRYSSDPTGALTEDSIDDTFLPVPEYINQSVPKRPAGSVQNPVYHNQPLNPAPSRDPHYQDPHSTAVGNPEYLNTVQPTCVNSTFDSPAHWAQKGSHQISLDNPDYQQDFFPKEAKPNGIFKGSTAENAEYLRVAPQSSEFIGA", "experiment": "Inhibition of erbB1 autophosphorylation in EGF-stimulated intact A431 cells (Western immunoblotting)", "format": "cell-based", "settings": "1 hour treatment", "procedure": "A431 cells were seeded into 6 well plates (with αMEM+5% FCS). The following day, plates were washed once with serum-free medium and grown for 18 hours in serum-free medium (αMEM) before being exposed to a range of inhibitor or prodrug concentrations for 1 hour and then stimulated for 15 minutes with 100 ng/ml epidermal growth factor (EGF receptor ligand). Next cells were washed with ice cold PBS and lysed in modified RIPA buffer on ice (30 min). Lysates were vortexed and clarify by spinning before protein concentrations of samples was determined by BCA assay. […] All antibodies were diluted in 2% BSA TBS-Tween 0.1%. To detect phospho-EGFR (Tyr 1068) the monoclonal antibody (1:500; Cell Signalling #2234) was incubated overnight at 4° C. and binding was detected with goat-anti-Rabbit-IgG-HRP conjugated secondary antibody (1:5000; Santa Cruz #SC2054; 3 h RT). To detect downstream phospho-p44/42 MAPK(Erk 1/2) (Thr202/Tyr 204) the monoclonal antibody (Cell Signalling #4370) was used at a 1:500 dilution. The blot was then treated with Goat anti-rabbit IgG-HRP conjugated secondary antibody (Santa Cruz Biotechnology, Inc. sc-2054) for three hours at a ratio of 1:5000. To normalise for any inaccuracy in gel loading, each blot was probed with anti-β-actin antibody (Abacus ALS #MAB-1501R, 1:2000 dilution). […] Densitometry was determined using Image J software. […]"}
{"smiles": "Cn1cnc([N+](=O)[O-])c1C[N+](C)(C)C/C=C/C(=O)Nc1cc2c(Nc3ccc(OCc4ccccn4)c(Cl)c3)ncnc2cn1", "note": "[Compound 15, (2E)-4-({4-[3-chloro-4-(2-pyridinylmethoxy)anilino]pyrido[3,4-d]pyrimidin-6-yl}amino)-N,N-dimethyl-N-[(1-methyl-4-nitro-1H-imidazol-5-yl)methyl]-4-oxo-2-buten-1-ammonium bromide]", "values": [{"measurement": "fold less effective at inhibiting erbB1 autophosphorylation than its respective inhibitor, compound 3", "result": 110, "unit": "fold"}]}
